# Test results published in PubChem BioAssay (NCATS).
# Values joined by “and” are separate entries in the source; they are usually repeats but may differ in a detail not shown here. Equal values may be shown once. The shares of active, inactive and inconclusive entries below differ from those in the screen. No potency is given beside an inconclusive call; the fits are too rough. Active and inactive are the calls of the source. Calls follow the shape of the dose curve; as a rule, active = well fitted cell-killing curve with a large enough effect; inconclusive = small, poorly fitted or top-dose-only effect, or effect the other way; inactive = no such curve, though single readings can be large or run the other way.
# Assay: qHTS of pediatric cancer cell lines to identify multiple opportunities for drug repurposing: Confirmatory screen for NB1643 cells (AID 1347109); also: nearly all actives have a fitted effect of over 45% in size;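 as to activity change, negative = cytotoxic: plate controls were DMSO for no effect and bortezomib for full effect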
# Conditions: NB1643 neuroblastoma cell viability; activity change, negative = cytotoxic: at 45.9 µM (top of the series)
# Outline: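 Cells (500-1,000/well) rested 5 h, then received compounds for 48 h; metabolically active cells were measured by CellTiter-Glo luminescence. Final concentrations spanned up to 46 µM (MIPE, 11-point) or 0.59 nM-46 µM (NPC, 8-point) in primary screens, 11-point in follow-ups.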
# Potency is read from the fitted curve at half-maximal effect; tags tell the direction and shape of the fitted curve.
Compound,Potency,"activity change, negative = cytotoxic"
S=P(N1CC1)(N1CC1)N1CC1,"inconclusive [cytotoxic, partial curve]",
COc1ccc(-c2ccc3cc(C(=O)O)ccc3c2)cc1C12CC3CC(CC(C3)C1)C2,active: 9.27 µM,
CCOc1cc2ncc(C#N)c(Nc3ccc(F)c(Cl)c3)c2cc1NC(=O)C=CCN(C)C,"inconclusive [cytotoxic, full curve]",
CS(=O)(=O)Nc1ccc([N+](=O)[O-])cc1Oc1ccccc1,,inactive: -9.96%
COc1cc(Nc2ncc3c(n2)-c2ccc(Cl)cc2C(c2c(F)cccc2OC)=NC3)ccc1C(=O)O,"inconclusive [cytotoxic, partial curve, poor fit]",
Nc1nc(=S)c2[nH]cnc2[nH]1,active: 5.85 µM and active: 4.14 µM,
COc1cc2nccc(Oc3ccc(NC(=O)Nc4cc(C)on4)c(Cl)c3)c2cc1OC,"inconclusive [cytotoxic, partial curve]",
